# This is one part of the list.
# B1: Spy0252 (Streptococcus pyogenes), Q9A1I9_STRP1 (protein)
# chain: MNMKKLASLAMLGASVLGLAACGGKSQKEAGASKSDTAKTEITWWAFPVFTQEKAEDGVGTYEKKLIAAFEKANPEIKVKLETIDFTSGPEKITTAIEAGTAPDVLFDAPGRIIQYGKNGKLADLNDLFTEEFTKDVNNDKLIQASKAGDTAYMYPISSAPFYMALNKKMLKDAGVLDLVKEGWTTDDFEKVLKALKDKGYNPGSFFANGQGGDQGPRAFFANLYSSHITDDKVTKYTTDDANSIKAMTKISNWIKDGLMMNGSQYDGSADIQNFANGQTSFTILWAPAQPGIQAKLLEASKVDYLEIPFPSDDGKPELEYLVNGFAVFNNKDEQKVAASKTFIQFIADDKEWGPKNVVRTGAFPVRTSYGDLYKDKRMEKIAEWTKFYSPYYNTIDGFAEMRTLWFPMVQAVSNGDEKPEDALKAFTEKANKTIKKTQ
# What was measured:
# Assay in all cases: glycan array binding signal (z-score within array); higher = stronger binding
# Details in all cases: glycan notation: IUPAC condensed, linker removed
# [1] = molecular target: Neu5Ac(a2-3)Gal(b1-3)[Fuc(a1-4)]GlcNAc(b1-3)Gal(b1-4)[Fuc(a1-3)]GlcNAc
# In short: (§1)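 Glycan array data came from 3228 arrays in the Consortium for Functional Glycomics database, and only arrays with an available protein sequence were kept. Glycan names were put into IUPAC-condensed notation, and columns mapping to the same glycan were averaged. The binding signal is a within-array Z-score, averaged across arrays of one protein sequence run at different concentrations or buffers and across linkers. A negative Z-score can be read as non-binding.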
# [2] = molecular target: Neu5Ac(a2-3)Gal(b1-3)[Neu5Ac(a2-3)Gal(b1-4)]GlcNAc
# In short: as §1
# [3] = molecular target: Neu5Ac(a2-3)Gal(b1-3)[Neu5Ac(a2-6)]GalNAc
# In short: as §1
# Neu5Ac(a2-3)Gal(b1-4)Glc = molecular target: Neu5Ac(a2-3)Gal(b1-4)Glc
# In short: as §1
# [4] = molecular target: Neu5Ac(a2-3)Gal(b1-4)GlcNAc
# In short: as §1
# [5] = molecular target: Neu5Ac(a2-3)Gal(b1-4)GlcNAc(b1-2)Man(a1-3)[GlcNAc(b1-2)Man(b1-4)GlcNAc(b1-2)Man(a1-6)]Man(b1-4)GlcNAc(b1-4)GlcNAc
# In short: as §1
# [6] = molecular target: Neu5Ac(a2-3)Gal(b1-4)GlcNAc(b1-2)Man(a1-3)[Neu5Ac(a2-6)Gal(b1-4)GlcNAc(b1-2)Man(a1-6)]Man(b1-4)GlcNAc(b1-4)GlcNAc
# In short: as §1
# [7] = molecular target: Neu5Ac(a2-3)Gal(b1-4)GlcNAc(b1-3)Gal(b1-3)GlcNAc
# In short: as §1
# [8] = molecular target: Neu5Ac(a2-3)Gal(b1-4)GlcNAc(b1-3)Gal(b1-4)GlcNAc
# In short: as §1
# [9] = molecular target: Neu5Ac(a2-3)Gal(b1-4)GlcNAc(b1-3)Gal(b1-4)GlcNAc(b1-3)Gal(b1-4)GlcNAc
# In short: as §1
# [10] = molecular target: Neu5Ac(a2-3)Gal(b1-4)GlcNAc(b1-3)Gal(b1-4)[Fuc(a1-3)]GlcNAc
# In short: as §1
# [11] = molecular target: Neu5Ac(a2-3)Gal(b1-4)GlcNAc(b1-3)GalNAc
# In short: as §1
# [12] = molecular target: Neu5Ac(a2-3)Gal(b1-4)GlcNAc(b1-6)[Gal(b1-3)]GalNAc
# In short: as §1
# [13] = molecular target: Neu5Ac(a2-3)Gal(b1-4)GlcNAc(b1-6)[Neu5Ac(a2-3)Gal(b1-3)]GalNAc
# In short: as §1
# [14] = molecular target: Neu5Ac(a2-3)Gal(b1-4)GlcNAc6S
# In short: as §1
# [15] = molecular target: Neu5Ac(a2-3)Gal(b1-4)[Fuc(a1-3)]GlcNAc
# In short: as §1
# [16] = molecular target: Neu5Ac(a2-3)Gal(b1-4)[Fuc(a1-3)]GlcNAc(b1-3)Gal
# In short: as §1
# [17] = molecular target: Neu5Ac(a2-3)Gal(b1-4)[Fuc(a1-3)]GlcNAc(b1-3)Gal(b1-4)GlcNAc
# In short: as §1
# [18] = molecular target: Neu5Ac(a2-3)Gal(b1-4)[Fuc(a1-3)]GlcNAc(b1-3)Gal(b1-4)[Fuc(a1-3)]GlcNAc(b1-3)Gal(b1-4)[Fuc(a1-3)]GlcNAc
# In short: as §1
# [19] = molecular target: Neu5Ac(a2-3)Gal(b1-4)[Fuc(a1-3)]GlcNAc(b1-6)[Gal(b1-3)]GalNAc
# In short: as §1
# [20] = molecular target: Neu5Ac(a2-3)Gal(b1-4)[Fuc(a1-3)]GlcNAc(b1-6)[Neu5Ac(a2-3)Gal(b1-3)]GalNAc
# In short: as §1
# [21] = molecular target: Neu5Ac(a2-3)Gal(b1-4)[Fuc(a1-3)]GlcNAc6S
# In short: as §1
# [22] = molecular target: Neu5Ac(a2-3)Gal6S(b1-4)GlcNAc
# In short: as §1
# [23] = molecular target: Neu5Ac(a2-3)Gal6S(b1-4)[Fuc(a1-3)]GlcNAc
# In short: as §1
# Neu5Ac(a2-3)GalNAc = molecular target: Neu5Ac(a2-3)GalNAc
# In short: as §1
# [24] = molecular target: Neu5Ac(a2-3)GalNAc(b1-4)GlcNAc
# In short: as §1
# [25] = molecular target: Neu5Ac(a2-3)[GalNAc(b1-4)]Gal(b1-4)Glc
# In short: as §1
# [26] = molecular target: Neu5Ac(a2-3)[GalNAc(b1-4)]Gal(b1-4)GlcNAc
# In short: as §1
# [27] = molecular target: Neu5Ac(a2-3)[Neu5Ac(a2-6)]GalNAc
# In short: as §1
# Neu5Ac(a2-6)Gal = molecular target: Neu5Ac(a2-6)Gal
# In short: as §1
# Neu5Ac(a2-6)Gal(b1-4)Glc = molecular target: Neu5Ac(a2-6)Gal(b1-4)Glc
# In short: as §1
# [28] = molecular target: Neu5Ac(a2-6)Gal(b1-4)GlcNAc
# In short: as §1
# [29] = molecular target: Neu5Ac(a2-6)Gal(b1-4)GlcNAc(b1-2)Man(a1-3)Man(b1-4)GlcNAc(b1-4)GlcNAc
# In short: as §1
# [30] = molecular target: Neu5Ac(a2-6)Gal(b1-4)GlcNAc(b1-2)Man(a1-3)[Gal(b1-4)GlcNAc(b1-2)Man(a1-6)]Man(b1-4)GlcNAc(b1-4)GlcNAc
# In short: as §1
# [31] = molecular target: Neu5Ac(a2-6)Gal(b1-4)GlcNAc(b1-2)Man(a1-3)[GlcNAc(b1-2)Man(a1-6)]Man(b1-4)GlcNAc(b1-4)GlcNAc
# In short: as §1
# [32] = molecular target: Neu5Ac(a2-6)Gal(b1-4)GlcNAc(b1-2)Man(a1-3)[GlcNAc(b1-2)Man(b1-4)GlcNAc(b1-2)Man(a1-6)]Man(b1-4)GlcNAc(b1-4)GlcNAc
# In short: as §1
binder,measurement,setting,value
B1,glycan array binding signal (z-score),[1],0.363
same,glycan array binding signal (z-score),[2],-0.223
same,glycan array binding signal (z-score),[3],-0.085
same,glycan array binding signal (z-score),Neu5Ac(a2-3)Gal(b1-4)Glc,5.54
same,glycan array binding signal (z-score),[4],-0.276
same,glycan array binding signal (z-score),[5],-0.262
same,glycan array binding signal (z-score),[6],-0.259
same,glycan array binding signal (z-score),[7],-0.263
same,glycan array binding signal (z-score),[8],-0.274
same,glycan array binding signal (z-score),[9],-0.26
same,glycan array binding signal (z-score),[10],6.21
same,glycan array binding signal (z-score),[11],-0.253
same,glycan array binding signal (z-score),[12],-0.236
same,glycan array binding signal (z-score),[13],-0.275
same,glycan array binding signal (z-score),[14],-0.268
same,glycan array binding signal (z-score),[15],-0.267
same,glycan array binding signal (z-score),[16],-0.258
same,glycan array binding signal (z-score),[17],-0.231
same,glycan array binding signal (z-score),[18],-0.264
same,glycan array binding signal (z-score),[19],-0.101
same,glycan array binding signal (z-score),[20],-0.157
same,glycan array binding signal (z-score),[21],-0.278
same,glycan array binding signal (z-score),[22],-0.264
same,glycan array binding signal (z-score),[23],-0.269
same,glycan array binding signal (z-score),Neu5Ac(a2-3)GalNAc,-0.276
same,glycan array binding signal (z-score),[24],-0.272
same,glycan array binding signal (z-score),[25],-0.266
same,glycan array binding signal (z-score),[26],-0.146
same,glycan array binding signal (z-score),[27],-0.262
same,glycan array binding signal (z-score),Neu5Ac(a2-6)Gal,-0.242
same,glycan array binding signal (z-score),Neu5Ac(a2-6)Gal(b1-4)Glc,2.73
same,glycan array binding signal (z-score),[28],-0.27
same,glycan array binding signal (z-score),[29],-0.272
same,glycan array binding signal (z-score),[30],-0.259
same,glycan array binding signal (z-score),[31],-0.272
same,glycan array binding signal (z-score),[32],-0.267
